The results in this text go back to the RNAGym collection of RNA variant scans (doi:10.1093/nar/gkz1192).

Read counts are not given, so values of variants with three or more changes are uncertain.

B1: CPEB3 Ribozyme (parent)
chain: UAACAGGGGGCCACAGCAGAAGCGUUCACGUCGCAGCCCCUGUCAGAUUCUGGUGAAUCUGCGAAUUCUGCUGUAUAUCUC

The variants in the data set derive from B1. Description: self-cleavage, relative activity (ratio to wild type); higher = more cleavage; in vitro, sequencing. The procedure, abridged:
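After error-prone PCR and barcoding, CPEB3 ribozyme mutant libraries were transcribed with T7 RNA polymerase at 37°C for 5 hours, then given 15 min with DNase I before an EDTA stop, and they cleaved during both steps. Reverse transcription with template switching preceded Illumina sequencing. Relative activity divides a variant's cleaved/total read fraction by the unmutated ribozyme's. At least 5 reads were required per variant, and three batches were averaged.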
Turning to U25C C32U U60C, the self-cleavage was 0.15. Regarding U26A U51A U54C U58C, the self-cleavage is 0.24. Regarding U25C A45U U51G U54C, the self-cleavage came to 0.03. In the case of U26A C29A U41C U49C U60A A64U U76A, the self-cleavage turned out to be 0.06. U26A A45G U48C U80C: the self-cleavage was determined as 0.27. On to U26A A45U U78C, for which the self-cleavage turned out to be 0.34. Consider U25G C29A A35U C79G, for which the self-cleavage amounted to 0.09.

For U25C U26C U74C, the self-cleavage was determined as 0.42. Regarding U26A U41C A45G A65U U67C, the self-cleavage turned out to be 0.17. Under U25C U41A U48C U67A stands 0.08; under U26A A28G A57U A64G, 0.13; under U26A U48C U49C U66C, 0.07. On to U25C A28G C37A, for which the self-cleavage is 0.25. Turning to U26A U31C A35C C79A, the self-cleavage stood at 0.56. As for U25C C32U U54G U66C, the figure is 0.18.

For the variant U25C U26C U31G U67A, the self-cleavage was found to be 0.08. Regarding U25C C40U U43C U78C, the self-cleavage stood at 0.08.

U25C C38A U41C A57G U76C: the self-cleavage was found to be 0.22. As for U25C U67C A77U, the figure is 0.07.

As for U25C U66C U72G, the self-cleavage was determined as 0.05. Regarding U25C U48C A56U C59G U74C, the self-cleavage was determined as 0.09.

Regarding U25C G30C U80A, the self-cleavage is 0.16.

For U26A C27U U67C U72A, the self-cleavage turned out to be 0.13. Regarding U25C U31G G36C A65U, the self-cleavage was 0.26. Turning to U25C C40U U51C U66C, the self-cleavage stood at 0.13. On to U25C U51C A65G U67A U72C, for which the self-cleavage worked out at 0.05. As for U26A C40A U69C, the figure is 0.19; as for U25C C32A A75U, 0.2. Under U25C A28G A35G stands 0.16. Take U25C C29U U58C U76C: the self-cleavage is 0.16. With U25C G42A U58C, the self-cleavage stood at 0.09. For U26A A64G U78C, the self-cleavage is 0.46.

Consider U25C U26C U41C U74C U76A, for which the self-cleavage turned out to be 0.05.

As to U25C G33U U51G, the self-cleavage worked out at 0.17.

U25C U43C A45U U78C: the self-cleavage was 0.17. As to U25A U69A U80A, the self-cleavage was determined as 0.14. Take U25C U49C U60A U80C: the self-cleavage is 0.07. Regarding U25C A28U C37U U48C G52U A56U U78C, the self-cleavage was 0.07. Under U25C A47G U51C U60A stands 0.13. For the variant U25C A64U U69G, the self-cleavage turned out to be 0.16. In the case of U25C U41C A56G U66C, the self-cleavage is 0.1.

In the case of U26A G61C U78A, the self-cleavage was 0.25.

As to U26A G42A G61C U66C, the self-cleavage worked out at 0.07. For U25C A56G U67C U76C, the self-cleavage came to 0.32. With U26A U41A U78C, the self-cleavage is 0.1. With U25C U41C A75G, the self-cleavage was 0.43. With U25C A47G U67A, the self-cleavage came to 0.07. As for U26A C62G U78C, the self-cleavage amounted to 0.12. Consider U26A C29G G63A, for which the self-cleavage is 0.55.

In the case of U25C C32A U51C, the self-cleavage came out at 0.18. On to U25C A35C C40U U48C U51C G52U U80C, for which the self-cleavage was 0.06. Under U26A C39A U43C U51G stands 0.03; under U26A A28U A64G U80C, 0.61; under U25C U43C A64U, 0.21. Regarding U25C U49A C62U U74A, the self-cleavage was 0.09. Consider U25C A47G G53A A57G, for which the self-cleavage is 0.17.

Regarding U26A U31A U74A, the self-cleavage came out at 0.78. As for U25C G46A A64G, the self-cleavage is 0.16. Turning to U26A C40G U54A, the self-cleavage stood at 0.2. On to U25C U58C A77U, for which the self-cleavage is 0.11. Regarding U25C U51A A64G U74C, the self-cleavage stood at 0.2.

As to U25C U26C U43A A64U, the self-cleavage came to 0.36. On to U26A U48C U66C U80C, for which the self-cleavage was 0.14. With U25C A57G U69C, the self-cleavage came out at 0.12. On to U26A U43A U72G, for which the self-cleavage was 0.09. Take U25C G42C U51C U69A: the self-cleavage worked out at 0.18. As for U25C G46C U49C, the figure is 0.17; as for U26A C40A G55U U60C U67C A75G, 0.06. Under U25C C29A A64G U66C stands 0.14. Take U25C C29A C40G C71U: the self-cleavage turned out to be 0.1. With U25C U41C U67C U69A U72A, the self-cleavage came to 0.12. With U26A U51A U72A, the self-cleavage was found to be 0.71. With U25C A56G A65G, the self-cleavage came to 0.31. Regarding U25C C38U U43C A45G A47G, the self-cleavage came to 0.18. Under U25C U31G A47G U60C stands 0.12; under U25C A28G U43C A45U U67C, 0.33; under U25C A45G U51C C62A, 0.06. As to U26A C32U A47G G55A U76C A77G, the self-cleavage turned out to be 0.06. Turning to U25G U49C U72C U78C, the self-cleavage amounted to 0.21. As for U25C A35U G63C U66C, the figure is 0.09. For the variant U25C A64G U67C U72C A75C, the self-cleavage turned out to be 0.08. Consider U25C A47U U49C U51C A57G, for which the self-cleavage is 0.16.

As to U25C C32U C38A A64U, the self-cleavage was found to be 0.11. Under U25C C29G A35G U48C U72A stands 0.07; under U25C G61A U72C, 0.1; under U25C U43A A47G A65G A77U, 0.22. On to U25C A57G A64G U78A U80C, for which the self-cleavage stood at 0.2. Take U26A U31C U41C: the self-cleavage turned out to be 0.44. As for U26A A35G U51A U67A, the self-cleavage amounted to 1.21. In the case of U25A U48C U78A, the self-cleavage is 0.13.

With U25C C59A A65U U67A, the self-cleavage is 0.11.

As for U26A U31C G46U A64U, the self-cleavage is 0.1. For the variant U26A U43C U58A, the self-cleavage is 0.14.

As for U26A C38A A56G U66C C71A U80C, the self-cleavage was 0.24. As to U25C U51A U78A, the self-cleavage is 0.14. U25C A28G C39U U41A U76C: the self-cleavage is 0.16. As for U26A A35G G42A, the figure is 0.17. For the variant U25C G42A U54G U72A, the self-cleavage turned out to be 0.13. As to U26A A47G U66C U76C, the self-cleavage is 0.16. Under U25C G33A U67C U80C stands 0.15. Under U25C U76C U80C stands 0.32; under U25C A47U U58C U80C, 0.28. In the case of U25C U31A U58A U66C U80A, the self-cleavage was 0. Under U25C U26C C27U U78C stands 0.18; under U25C A45G A56G A57G U60A U66C G70A, 0.19. Under U26A U31C U48C U51G A65U U69C A77G stands 0.08; under U25C C39A C50U U51G U60C, 0.11; under U25C U67G A75G, 0.07. Under U25C G30A A64G C81A stands 0.1. In the case of U25A U58C U60A U67A, the self-cleavage was 0.21.

For the variant U26A C29U U41A U49A, the self-cleavage was 0.05. As for U25C U43C A56G A75G, the figure is 0.07.

With U25C U43G U66C U72A U80C, the self-cleavage amounted to 0.24. For U25C U31C U60A, the self-cleavage amounted to 0.39. As for U25C A64U U69C C79A, the figure is 0.08.

Turning to U25C U41A U60C A64G, the self-cleavage is 0.07.

For U25C A35U U41C U69A, the self-cleavage amounted to 0.04. Regarding U26A A35U A45G A47G A77C, the self-cleavage was determined as 0.12.

Take U26A A28G C39U U43G U54C A57U: the self-cleavage worked out at 0.05.

Turning to U26A U41C U43A U76C, the self-cleavage was determined as 0.14. On to U25C U43A U48C, for which the self-cleavage was 0.29. For the variant U26A G63U U66A, the self-cleavage was 0.29. Under U25C U41A A64G stands 0.2.

Turning to U25A U58A U78A U80C, the self-cleavage was determined as 0.13. For U25C A35U U66C U76A, the self-cleavage is 0.09. In the case of U25C U49C C50A, the self-cleavage is 0.23.

On to U25C U54A U74C, for which the self-cleavage amounted to 0.23. Under U25C C32A U54C A75U stands 0.2; under U25C U31A G36C C38G, 0.14; under U26A U54A U60A, 0.32. U25C C29A A57G U66C: the self-cleavage came out at 0.25.

For the variant U25C A28G C32U U67C A75G, the self-cleavage worked out at 0.14. Under U25C C40G A47G U51A U60C U74C stands 0.17. For the variant U25C A28G U43A, the self-cleavage worked out at 0.11.

Take U26A A57G U69C U72C: the self-cleavage amounted to 0.25. Under U26A U41C A47G stands 0.57. With U25C U49C U58C U60A A75C, the self-cleavage is 0.38. For the variant U25C A28U U51A U78A, the self-cleavage was determined as 0.16. U25C A35G U48C U60C U78C U80A: the self-cleavage is 0.17. In the case of U26A U43C G63A, the self-cleavage turned out to be 0.25. As for U25A U66C U72A, the self-cleavage was 0.13. As for U26A U54A U60C G70A, the figure is 0.42. Turning to U25C A45U U51C A56G, the self-cleavage worked out at 0.13. On to U25C U43C U80A, for which the self-cleavage is 0.24.

As for U25C A35U A65G U66A, the self-cleavage stood at 0.18. As for U26A U49C A65U, the figure is 0.08; as for U26A A28G A47G U49A G53U G61C G70U, 0.09.

U25C C37U U48C U54C C59U A64U U72C: the self-cleavage worked out at 0.08. Under U26A U41C A65U stands 0.23; under U25C U26A A35G U43A, 0.09; under U25C A35U A45G, 0.08.

For the variant U25G C62G U69A, the self-cleavage is 0.19. As for U25C U31C U41C, the figure is 0.19; as for U25C A56U U74C U76C, 0.25. As for U25C U60A A77U, the self-cleavage worked out at 0.11. Consider U25A U48C A56G U58A, for which the self-cleavage stood at 0.15. Take U26A A28G A56G U69A: the self-cleavage came out at 0.15.

Regarding U25C U31A G52A U69C, the self-cleavage came to 0.11. Consider U26A U58A U67A U69C, for which the self-cleavage amounted to 0.17. Take U25C A45G U49C U80C: the self-cleavage came out at 0.11. Under U25G C29U U48A U51C stands 0.04. In the case of U26A A28C U78C, the self-cleavage worked out at 0.23. As for U25C C32U A45G U51A G61U U72G, the figure is 0.2; as for U25C U41A A45U A64G U66C U69A U74A, 0.04; as for U25C U26C A35U U43C U54C, 0.35. For the variant U25C U43A A56G U60A U80C, the self-cleavage was found to be 0.16.

For the variant U26A A35G U41C A56U U66C U78C, the self-cleavage was found to be 0.09.
